Measured values: patent US20190241659A1 (AstraZeneca / MedImmune, published 2019)

Assays:
[1] = target: T1, human OX40 on the cell surface (OX40 transfected Jurkat NF-κB-Luc reporter cells; engineered CHO cells) (human, UniProt P43489 29-277); experiment: cell-based or functional assay
T1 sequence (looked up): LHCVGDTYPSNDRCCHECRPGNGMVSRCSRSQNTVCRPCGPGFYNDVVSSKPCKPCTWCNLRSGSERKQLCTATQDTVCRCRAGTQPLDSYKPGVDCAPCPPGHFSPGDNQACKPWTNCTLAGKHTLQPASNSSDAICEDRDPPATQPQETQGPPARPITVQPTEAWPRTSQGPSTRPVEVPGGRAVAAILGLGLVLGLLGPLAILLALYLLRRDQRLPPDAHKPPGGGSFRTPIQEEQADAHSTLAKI

[2] = target: T2, cynomolgus monkey PD-L1 on engineered CHO cells (cynomolgus monkey, UniProt G7PSE7 19-290); experiment: flow cytometry on engineered CHO cells; four-parameter sigmoidal fit, 50% occupancy
T2 construct: whole, on cells

[3] = target: T3, cynomolgus monkey OX40 on engineered CHO cells (cynomolgus monkey); experiment: flow cytometry on engineered CHO cells; four-parameter sigmoidal fit, 50% receptor occupancy
T3 chain: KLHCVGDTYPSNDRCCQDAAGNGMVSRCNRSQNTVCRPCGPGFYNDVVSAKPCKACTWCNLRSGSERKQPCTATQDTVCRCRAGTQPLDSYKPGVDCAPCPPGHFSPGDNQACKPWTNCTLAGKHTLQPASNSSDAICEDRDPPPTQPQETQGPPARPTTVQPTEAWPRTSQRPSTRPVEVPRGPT

[4] = target: T1, human OX40 on the cell surface (OX40 …); experiment: as above
[5] = target: activated human T cells (CD4+ T cells, CD8+ T cells) (human); experiment: cell-based or functional assay
[6] = target: cynomolgus monkey OX40 and cynomolgus monkey PD-L1 expressed together on engineered CHO cells (cynomolgus monkey, UniProt G7PSE7 19-290); experiment: flow cytometry on CHO cyno PD-L1/OX40 cells, AlexaFluor 647 goat anti-human IgG secondary, MFI

B1: MEDI5615 (PD-L1/OX40L BFP2 bispecific molecule, IgG4P) (other)
chain: QVSHRYPRIQSIKVQFTEYKKEKGFILTSQKEDEIMKVQNNSVIINCDGFYLISLKGYFSQEVNISLHYQKDEEPLFQLKKVRSVNSLMVASLTYKDKVYLNVTTDNTSLDDFHVNGGELILIHQNPGEFCVLGGGGSGGGGSQVSHRYPRIQSIKVQFTEYKKEKGFILTSQKEDEIMKVQNNSVIINCDGFYLISLKGYFSQEVNISLHYQKDEEPLFQLKKVRSVNSLMVASLTYKDKVYLNVTTDNTSLDDFHVNGGELILIHQNPGEFCVLGGGGSGGGGSQVSHRYPRIQSIKVQFTEYKKEKGFILTSQKEDEIMKVQNNSVIINCDGFYLISLKGYFSQEVNISLHYQKDEEPLFQLKKVRSVNSLMVASLTYKDKVYLNVTTDNTSLDDFHVNGGELILIHQNPGEFCVLGGGGSGGGGSGGGGS[letters of human IgG4 Fc with S228P (EU numbers) not shown]GGGGSGGGGSEIVLTQSPGTLSLSPGERATLSCRASQRVSSSYLAWYQQKPGQAPRLLIYDASSRATGIPDRFSGSGSGTDFTLTISRLEPEDFAVYYCQQYGSLPWTFGCGTKVEIKGGGGSGGGGSGGGGSGGGGSEVQLVESGGGLVQPGGSLRLSCAASGFTFSRYWMSWVRQAPGKCLEWVANIKQDGSEKYYVDSVKGRFTISRDNAKNSLYLQMNSLRAEDTAVYYCAREGGWFGELAFDYWGQGTLVTVSS
EC50, NF-κB luciferase in human OX40-expressing Jurkat T cells with CD32A-expressing HEK293 cells [1]: 0.052 nM | EC50, NF-κB luciferase in human OX40-expressing Jurkat T cells with PD-L1 expressing MDA-MB231 cells [1]: 0.018 nM | EC50 [2]: 0.11 nM | EC50 [3]: 0.056 nM | EC50 [4]: 0.18 nM

B2: Anti-PD1-OX40L FP BFP3 (wild type OX40L) (other)
heavy: EVQLVESGGGLVQPGGSLRLSCAASGFTFSDYGMHWVRQAPGKGLEWVAYISSGSYTIYSADSVKGRFTISRDNAKNSLYLQMNSLRAEDTAVYYCARRAPNSFYEYYFDYWGQGTTVTVSSASTKGPSVFPLAPCSRSTSESTAALGCLVKDYFPEPVTVSWNSGALTSGVHTFPAVLQSSGLYSLSSVVTVPSSSLGTKTYTCNVDHKPSNTKVDKRV[letters of human IgG4 Fc with S228P (EU numbers) not shown]GGGGSGGGGSGGGGSQVSHRYPRIQSIKVQFTEYKKEKGFILTSQKEDEIMKVQNNSVIINCDGFYLISLKGYFSQEVNISLHYQKDEEPLFQLKKVRSVNSLMVASLTYKDKVYLNVTTDNTSLDDFHVNGGELILIHQNPGEFCVLGGGGSGGGGSQVSHRYPRIQSIKVQFTEYKKEKGFILTSQKEDEIMKVQNNSVIINCDGFYLISLKGYFSQEVNISLHYQKDEEPLFQLKKVRSVNSLMVASLTYKDKVYLNVTTDNTSLDDFHVNGGELILIHQNPGEFCVLGGGGSGGGGSQVSHRYPRIQSIKVQFTEYKKEKGFILTSQKEDEIMKVQNNSVIINCDGFYLISLKGYFSQEVNISLHYQKDEEPLFQLKKVRSVNSLMVASLTYKDKVYLNVTTDNTSLDDFHVNGGELILIHQNPGEFCVL
light: QIVLTQSPATLSLSPGERATLSCSASSKHTNLYWSRHMYWYQQKPGQAPRLLIYLTSNRATGIPARFSGSGSGTDFTLTISSLEPEDFAVYYCQQWSSNPFTFGQGTKLEIKRTVAAPSVFIFPPSDEQLKSGTASVVCLLNNFYPREAKVQWKVDNALQSGNSQESVTEQDSKDSTYSLSSTLTLSKADYEKHKVYACEVTHQGLSSPVTKSFNRGEC
EC50 (read off the curve) [5]: ~0.1 nM and ~0.3 nM

B3: PD-L1 F180A OX40L BFP2 (other)
chain: QVSHRYPRIQSIKVQFTEYKKEKGFILTSQKEDEIMKVQNNSVIINCDGFYLISLKGYFSQEVNISLHYQKDEEPLFQLKKVRSVNSLMVASLTYKDKVYLNVTTDNTSLDDFHVNGGELILIHQNPGEACVLGGGGSGGGGSQVSHRYPRIQSIKVQFTEYKKEKGFILTSQKEDEIMKVQNNSVIINCDGFYLISLKGYFSQEVNISLHYQKDEEPLFQLKKVRSVNSLMVASLTYKDKVYLNVTTDNTSLDDFHVNGGELILIHQNPGEACVLGGGGSGGGGSQVSHRYPRIQSIKVQFTEYKKEKGFILTSQKEDEIMKVQNNSVIINCDGFYLISLKGYFSQEVNISLHYQKDEEPLFQLKKVRSVNSLMVASLTYKDKVYLNVTTDNTSLDDFHVNGGELILIHQNPGEACVLGGGGSGGGGSGGGGS[letters of human IgG4 Fc with S228P (EU numbers) not shown]GGGGSGGGGSEIVLTQSPGTLSLSPGERATLSCRASQRVSSSYLAWYQQKPGQAPRLLIYDASSRATGIPDRFSGSGSGTDFTLTISRLEPEDFAVYYCQQYGSLPWTFGCGTKVEIKGGGGSGGGGSGGGGSGGGGSEVQLVESGGGLVQPGGSLRLSCAASGFTFSRYWMSWVRQAPGKCLEWVANIKQDGSEKYYVDSVKGRFTISRDNAKNSLYLQMNSLRAEDTAVYYCAREGGWFGELAFDYWGQGTLVTVSS
EC50 (read off the curve) [6]: ~0.06 nM

“And” between values parts separate entries of the source, which are not always exact repeats. Equal entries are not always repeated.
